This is an account of results in article PMC6737964.

Amino acid sequences for entries named in this document (tags omitted).
UniProt P23201: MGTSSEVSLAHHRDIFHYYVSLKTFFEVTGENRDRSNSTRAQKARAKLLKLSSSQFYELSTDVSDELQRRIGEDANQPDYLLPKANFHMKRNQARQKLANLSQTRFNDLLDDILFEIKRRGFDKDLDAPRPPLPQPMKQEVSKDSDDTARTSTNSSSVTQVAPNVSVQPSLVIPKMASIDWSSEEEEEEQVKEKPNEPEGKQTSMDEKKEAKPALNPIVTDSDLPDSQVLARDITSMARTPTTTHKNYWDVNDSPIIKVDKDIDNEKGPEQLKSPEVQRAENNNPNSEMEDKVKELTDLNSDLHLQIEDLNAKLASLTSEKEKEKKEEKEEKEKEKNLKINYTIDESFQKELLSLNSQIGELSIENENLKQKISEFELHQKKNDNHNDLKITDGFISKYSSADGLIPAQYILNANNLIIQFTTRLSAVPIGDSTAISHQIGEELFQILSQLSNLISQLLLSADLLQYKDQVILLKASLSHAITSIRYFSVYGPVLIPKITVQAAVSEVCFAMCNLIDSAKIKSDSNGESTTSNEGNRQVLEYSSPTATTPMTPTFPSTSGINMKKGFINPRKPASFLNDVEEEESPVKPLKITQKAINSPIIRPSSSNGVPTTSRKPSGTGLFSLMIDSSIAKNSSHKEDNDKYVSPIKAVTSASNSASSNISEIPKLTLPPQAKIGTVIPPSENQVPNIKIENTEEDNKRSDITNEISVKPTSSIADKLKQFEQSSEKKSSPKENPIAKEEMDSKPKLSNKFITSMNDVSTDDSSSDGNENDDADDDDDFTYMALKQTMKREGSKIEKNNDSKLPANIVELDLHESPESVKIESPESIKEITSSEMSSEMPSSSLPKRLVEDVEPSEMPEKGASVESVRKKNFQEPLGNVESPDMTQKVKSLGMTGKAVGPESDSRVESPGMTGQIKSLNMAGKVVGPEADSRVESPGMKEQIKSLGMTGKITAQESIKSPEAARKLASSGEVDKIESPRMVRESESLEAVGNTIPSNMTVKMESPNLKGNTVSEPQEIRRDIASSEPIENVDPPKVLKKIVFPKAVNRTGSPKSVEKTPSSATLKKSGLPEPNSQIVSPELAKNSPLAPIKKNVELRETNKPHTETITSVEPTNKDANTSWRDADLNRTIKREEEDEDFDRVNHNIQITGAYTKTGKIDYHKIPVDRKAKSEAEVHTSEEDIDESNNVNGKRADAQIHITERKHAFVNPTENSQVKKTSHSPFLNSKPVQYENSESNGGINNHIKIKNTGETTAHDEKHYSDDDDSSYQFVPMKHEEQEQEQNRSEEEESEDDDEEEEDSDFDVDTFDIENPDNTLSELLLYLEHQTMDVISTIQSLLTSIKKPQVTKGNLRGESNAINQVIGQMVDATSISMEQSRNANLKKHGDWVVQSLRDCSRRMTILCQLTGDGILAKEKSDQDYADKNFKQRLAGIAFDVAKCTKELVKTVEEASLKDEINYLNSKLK

Like-named read-outs stand apart in the source and are kept apart here. No constants are given. Whether binding was seen depends on the method and setting. For part of these data: Binding seen in cells or lysates may run through a third protein. Some binding calls cover weakened binding; strength is not graded here. For part of these data: Where a sequence is shown, tags or fusion partners need not be part of it.

In experiment [1] the target is Pex3_(1-45)-mCherry-Spa2 (Saccharomyces cerevisiae) (UniProt P23201). The experiment can be described thus: relocation to Spa2-decorated peroxisomes (fluorescence microscopy); Pex3_(1-45)-mCherry-Spa2 on peroxisomes co-expressed with GFP fusions of Aip5 in yeast cells with a deletion of the genomic SPA2; percent of counted cells with co-localisation.
Experiment [2] concerns the target T1, GST Bud6_(1-141) (Saccharomyces cerevisiae) (UniProt P41697).
T1 sequence: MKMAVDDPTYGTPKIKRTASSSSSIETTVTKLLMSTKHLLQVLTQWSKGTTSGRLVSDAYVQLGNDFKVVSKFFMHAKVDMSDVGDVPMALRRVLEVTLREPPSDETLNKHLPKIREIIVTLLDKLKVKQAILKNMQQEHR
Put plainly: pull-down; GST fusions from E. coli extracts on glutathione-coupled sepharose beads, washed, blocked with 0.1 mg/ml BSA, incubated 1 h with E. coli extract of His6 Aip5_(1000-end) in HBSEP (10 mM Hepes, 150 mM NaCl, 3 mM EDTA, 0.005% Tween-20); eluted with glutathione; anti-His blot; only the target purified.

Experiment [3] addresses T2, GST Bud6_(1-364) (Saccharomyces cerevisiae) (UniProt P41697).
T2 sequence: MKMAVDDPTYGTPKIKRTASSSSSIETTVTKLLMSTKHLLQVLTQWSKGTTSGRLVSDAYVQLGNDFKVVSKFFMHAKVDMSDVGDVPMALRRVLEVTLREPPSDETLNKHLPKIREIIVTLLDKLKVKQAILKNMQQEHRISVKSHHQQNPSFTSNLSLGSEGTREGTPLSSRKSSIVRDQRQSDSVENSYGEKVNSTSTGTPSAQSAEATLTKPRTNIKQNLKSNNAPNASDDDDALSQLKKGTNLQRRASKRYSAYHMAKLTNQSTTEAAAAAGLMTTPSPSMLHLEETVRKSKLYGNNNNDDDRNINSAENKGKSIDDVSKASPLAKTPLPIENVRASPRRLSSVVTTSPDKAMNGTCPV
Described as above.

For experiment [4], the target named is Aip5CRU (full-length Aip5 fused to C-terminal Ubiquitin-R (arginine)-Ura3) (Saccharomyces cerevisiae) (UniProt P43597). The experiment can be described thus: split reporter; split-ubiquitin, manual: haploid or diploid yeast co-expressing one CRU and one Nub fusion, tenfold serial dilutions from OD600=1 on medium with or without 1 mg/ml 5-FOA, 30°C, 2-7 days; also in cells lacking BUD6 or SPA2.

Experiment [5] deals with Aip5_(Δ1000-1125) CRU (Saccharomyces cerevisiae) (UniProt P43597). The description is as above.
Experiment [6] addresses T3, Aip5 N-terminal 300 amino acids as CRU fusion (Saccharomyces cerevisiae) (UniProt P43597).
T3 sequence: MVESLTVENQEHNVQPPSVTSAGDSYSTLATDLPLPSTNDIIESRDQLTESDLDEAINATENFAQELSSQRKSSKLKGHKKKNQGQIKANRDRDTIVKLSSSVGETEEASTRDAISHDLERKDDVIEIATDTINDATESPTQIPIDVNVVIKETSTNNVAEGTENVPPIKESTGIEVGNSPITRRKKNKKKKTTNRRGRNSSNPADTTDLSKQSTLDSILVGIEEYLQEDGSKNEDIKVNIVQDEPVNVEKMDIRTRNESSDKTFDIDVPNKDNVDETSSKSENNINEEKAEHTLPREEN
The experiment is described as above.

In experiment [7] the target is Aip5CRU (full-length Aip5 fused to C-terminal Ubiquitin-R (arginine)-Ura3) (Saccharomyces cerevisiae) (UniProt P43597). The experiment can be described thus: split reporter; split-ubiquitin array screen: Aip5CRU a-strain mated with 533 Nub fusion alpha-strains, diploids spotted in quadruplets on 5-FOA medium, 4 days; growth indicates interaction.
Experiment [8] deals with Aip5_(1000-end)CRU (Saccharomyces cerevisiae) (UniProt P43597). The experiment can be described thus: split reporter; split-ubiquitin, manual: haploid or diploid yeast co-expressing one CRU and one Nub fusion, tenfold serial dilutions from OD600=1 on medium with or without 1 mg/ml 5-FOA, 30°C, 2-7 days; also in cells lacking BUD6 or SPA2.
Experiment [9] has as its target Aip5CRU (full-length Aip5 fused to C-terminal Ubiquitin-R (arginine)-Ura3) (Saccharomyces cerevisiae) (UniProt P43597). The description is as above. The source holds these as a separate data set.
For experiment [10], the target named is T4, Aip5_(1000-1131) as CRU fusion (Saccharomyces cerevisiae) (UniProt P43597).
T4 sequence: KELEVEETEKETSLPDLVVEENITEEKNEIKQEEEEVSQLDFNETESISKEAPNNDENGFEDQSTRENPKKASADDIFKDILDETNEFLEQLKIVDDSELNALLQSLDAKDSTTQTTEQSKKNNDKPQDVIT
The description is as above.

The target of experiment [11] is Aip5_(Δ1000-1125) CRU (Saccharomyces cerevisiae) (UniProt P43597). The experiment is described as above. This is another data set of the same source.

As for “Aip5_(300-end)-GFP (from UniProt P43597 300-1233) (domain or fragment)”, the binding result in experiment [1] is “no binding”.
With “His6 Aip5_(1000-end) (from UniProt P43597 1000-1233) (domain or fragment)”, the binding result in [2] and in [3] was “binds” throughout.
With Nub-Spa2 (from UniProt P23201 1-1466), the binding result in experiment [4], in [5], in [6] and in experiment [7] was “binds” throughout.

B1: Nub-Bud6_(1-141) (domain or fragment, UniProt P41697 1-141)
chain: MKMAVDDPTYGTPKIKRTASSSSSIETTVTKLLMSTKHLLQVLTQWSKGTTSGRLVSDAYVQLGNDFKVVSKFFMHAKVDMSDVGDVPMALRRVLEVTLREPPSDETLNKHLPKIREIIVTLLDKLKVKQAILKNMQQEHR
With B1, the binding result in [8] is “binds”.

B2: Nub-Bud6 (protein, UniProt P41697 1-788)
chain: MKMAVDDPTYGTPKIKRTASSSSSIETTVTKLLMSTKHLLQVLTQWSKGTTSGRLVSDAYVQLGNDFKVVSKFFMHAKVDMSDVGDVPMALRRVLEVTLREPPSDETLNKHLPKIREIIVTLLDKLKVKQAILKNMQQEHRISVKSHHQQNPSFTSNLSLGSEGTREGTPLSSRKSSIVRDQRQSDSVENSYGEKVNSTSTGTPSAQSAEATLTKPRTNIKQNLKSNNAPNASDDDDALSQLKKGTNLQRRASKRYSAYHMAKLTNQSTTEAAAAAGLMTTPSPSMLHLEETVRKSKLYGNNNNDDDRNINSAENKGKSIDDVSKASPLAKTPLPIENVRASPRRLSSVVTTSPDKAMNGTCPVFLRIGDKTKKCHVQLPTTKNALRLLFIERFAYSPGANSFPDIYIMDPQYGVFYELEELNLLDIKEGFVIELKLEENPNNTIKEFIDTVKMEISNSQNDIIRHLKEMSFGSAISGKQTEVLPQPGLEANKHDLVGQNKKDDDKTIKDIQYELGKIKQVHNINRSNINETIFNILRKVDNFKSLSFSAKNSSNRMYMEKSQTELGDLSDTLLSKVDDLQDVIEIMRKDVAERRSQPAKKKLETVSKDLENAQADVLKLQEFIDTEKPHWKKTWEAELDKVCEEQQFLTLQEELILDLKEDLGKALETFDLIKLCCEEQEKNPSRSKSNPILPIMRPGTFNQVREQVMVAVQSLNPDHDSRVEAIDKAEKMWEMERKLKASNEFDDELENFVGNSNLKKSGGFEEVERIRKQKDEANLRAYFGPGFT
Turning to B2, the binding entry is “binds” in experiment [7], “binds” in [9], “binds” in experiment [10] and “no binding” in [11].
